Measured values as given in PubChem BioAssay AID1963576 (National Center for Advancing Translational Sciences (NCATS), 2024).
The whole screen tested about 46,000 compounds, of which about 60 (0.1%) were called active. Roughly 3% stayed inconclusive and do not appear here. The call rests on the fitted dose curve; in most records, active means well fitted inhibition curve with a large enough effect; inconclusive means small, poorly fitted or top-dose-only effect; inactive means no such curve, though single readings can be large or run the other way. Some of the results follow.

Experiment: Primary qHTS assay for Inhibitors of ovarian cancer metastasis using an organotypic tumor microenvironment (TME) model. Further: nearly all actives have a fitted effect of over 65% in size.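 On activity change, negative = inhibition: plate controls were DMSO wells for no effect and tomatine positive control wells for full effect.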
Conditions: SKOV3ip1-GFP adhesion/invasion on 3D omental model, fluorescence; series mostly up to 45.8 µM; activity change, negative = inhibition: at the top concentration
Outline: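 Adhesion/invasion was scored as fixed GFP-labeled SKOV3ip1 cell counts (488/509 nm), normalized to DMSO and tomatine controls. Cancer cells in serum-free medium, with four compound doses (0.36-46 umol/L), sat 2 hr at RT then 16 hr at 37 C on a 48 hr fibroblast/mesothelial/ECM culture.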

Activity change, negative = inhibition, inactive:
COc1nc(-c2ccccc2)ccc1-c1noc(-c2ccccc2Br)n1 -4.52%, COc1cccc(OCc2cc(=O)n3c(-c4ccccc4)csc3n2)c1 19.7%, CCN1CCN(C(=O)Cn2c(-c3cccs3)cc3ccccc32)CC1 2.36%, COc1ccc(N2CCN(S(=O)(=O)CCNC(=O)COc3ccccc3F)CC2)cc1 -6.29%, CCN(CC)S(=O)(=O)c1ccc(C(=O)NCCSc2c(-c3ccc(C)cc3)[nH]c3ccccc23)cc1 -8.12%, O=C(CN1C(=O)COc2ccc(S(=O)(=O)N3CCCC3)cc21)N1CCN(c2cccc(C(F)(F)F)c2)CC1 -22.7%, COc1ccc(CCNC(=O)c2ccc3c(c2)N(Cc2ccccc2F)C(=O)c2ccccc2S3=O)cc1OC (stereo not given) -2.83%, Cc1ccc(Cc2nc3ccccc3nc2SCC(=O)N2CCCc3ccccc32)cc1 -11.8%, Cc1ccccc1N1C(=O)c2cc(S(N)(=O)=O)c(Cl)cc2NC1C (stereo not given) 0.746%, Cc1ccc(NC(=O)CCNS(=O)(=O)c2cccc3nonc23)cc1Cl -0.313%, CN1C(=O)c2ccccc2Sc2ccc(NC(=O)NCc3cccc(Cl)c3)cc21 0.766%, Cc1ccc(C(=O)Oc2c(S(=O)(=O)c3ccccc3)c(C)nn2-c2ccccc2)cc1 2.46%, CCOC(=O)CSc1nc(-c2ccc(Cl)cc2)cc(C(F)(F)F)c1C#N 5.83%, CC[C@H](NC(C)C)[C@H](O)c1ccc(O)c2[nH]c(=O)ccc12 -12.7%, CCCNC(=O)C(C)n1nc(C)c2c(C)n(-c3ccccc3)nc2c1=O (stereo not given) -0.396%, Cc1ccc(CNC(=O)CSc2c3c(nc4cc(Cl)ccc24)CCCC3)cc1 -6.55%, Cc1c(-c2nc(-c3ccccc3F)no2)nnn1-c1cc(F)ccc1F 1.97%, COc1ccccc1NC(=O)N1CCC(CN2CCc3ccccc3C2)CC1 0.206%, CCc1ccccc1NC(=O)C1CCN(C(=O)N2CC(C)Oc3ccc(Cl)cc32)CC1 (stereo not given) -26.7%, COc1ccc(Cl)cc1NC(=O)Cn1nc(Cc2ccncc2)c2ccccc2c1=O -2.8%, CCOc1ccccc1NC(=O)Cn1c(=O)n(Cc2ccco2)c(=O)c2ccc(C(=O)NC3CCCC3)cc21 -2.63%, Cc1ccc(NC(=O)Cn2c(=O)oc3ccccc32)cc1C -5.03%, Cc1ccc(NC(=O)c2sc3nc[nH]c(=O)c3c2C)cc1Cl -3.61%, COC(=O)c1c(NC(=O)c2cc(OC)c(OC)c(OC)c2Br)sc2c1CCC(C)C2 (stereo not given) 6.41%, Cc1c(Cl)cccc1-n1ncc(C(=O)NCc2cccs2)c1C1CCN(C(=O)OC(C)(C)C)CC1 3.39%, CC(C)CNc1ncnc2c1nnn2C 3.98%, COc1cc(C2c3c(-c4ccc(C)cc4)n[nH]c3C(=O)N2c2ccc(F)cc2)ccc1O (stereo not given) 11.7%, CNC(=O)Cn1c(=O)c2cccn2c2ccc(F)cc21 -9.84%, Cc1cccc(NC(=O)c2cc(S(=O)(=O)N3CCN(c4ccccc4F)CC3)ccc2F)c1C 9.27%, COc1ccc(CNC(=O)CCn2nc(C)c3c(C)n(-c4ccccc4)nc3c2=O)c(OC)c1 -5.02%, Cc1cc(C)c(NC(=O)Cn2c(=O)nc(-c3ccccc3)c3cc(Cl)ccc32)c(C)c1 14.4%, CC(C)(C)c1ccc(CN(Cc2ccco2)c2cnc(S(C)(=O)=O)nc2C(=O)Nc2ccc(F)cc2)cc1 -20.1%, N#C/C(=C/c1cn(Cc2ccccc2Cl)c2ccccc12)C(=O)Nc1cccc(Cl)c1 9.63%, Clc1ccc(OCc2nc3ccccc3n2Cc2ccccc2)c(Cl)c1 -5.22%, CCc1ccc(-c2nn(CC(=O)Nc3ccccc3C)c3c2cnc2ccc(C)cc23)cc1 0.249%, Cc1ccccc1CN1c2ccccc2-c2nc(SCC(N)=O)ncc2S1(=O)=O 9.21%, CCc1cccc(CC)c1-n1nnc2c(sc3nc(C)cc(C)c32)c1=O 9.32%, Cc1cc(=O)n(Cc2cccc(F)c2)c2c1c(C)nn2-c1cccc(F)c1 13.7%, Cc1ccc(C)c(NC(=O)CN2C(=O)c3cccnc3Oc3ccc(C)cc32)c1 2.36%, Cc1ccc(-c2nn(CC(=O)NC3CCCC3)c3c2cnc2ccccc23)cc1 1.97%, Cc1ccc(CNC(=O)c2ccc(-c3nc(CS(=O)c4ccccc4)c(C)o3)cc2)cc1 (stereo not given) -4.7%, Cc1cccc(-c2nc(CSCC(=O)NCCc3ccc(Cl)cc3)c(C)o2)c1 1.82%, COc1cc(NC(=O)c2nc3ccccc3nc2N2CCCCC2)cc(OC)c1OC 9.35%, CC(C)(C)C1CCc2c(sc3nnn(CCOc4ccccc4)c(=O)c23)C1 (stereo not given) 2.51%, Cc1ccc(C)c(NC(=O)c2nn(C)c3c2CS(=O)(=O)c2ccccc2-3)c1 6.98%, COc1cc(/C=C/c2nc(C#N)c(NCCc3ccccc3)o2)cc(OC)c1OC -9.08%, COCCn1ccc2c(OCC(=O)Nc3ccccc3F)cccc2c1=O -1.16%, O=C1N(c2ccccc2)c2ccccc2C1(Cc1ccncc1)Cc1ccncc1 3.08%, COc1cccc(C2=CC(c3ccccc3F)n3ncc(C(=O)Nc4ccc(C)cc4)c3N2)c1 (stereo not given) 1.6%, CCC(=O)Nc1ccc(CC)cc1-c1nc2ccccc2n(CC(=O)Nc2cccc(OC)c2)c1=O -25.5%, CC1CCCCN1c1c(S(=O)(=O)c2ccc(Cl)cc2)cnc2ccccc12 (stereo not given) -5.19%, Cc1ccc(CCNC(=O)c2sc3ncccc3c2-n2c(C)ccc2C)cc1 11.7%, CCOC(=O)c1cc2c(=O)n3ccccc3nc2n(CC(C)C)c1=NC(=O)COc1ccc(Cl)cc1 -8.24%, Cc1ccc(N(CC(=O)N2CCN(c3cccc(Cl)c3)CC2)S(=O)(=O)c2c(C)noc2C)cc1 3.82%, COc1ccc(C)cc1NC(=O)N1CCC(CN2CCOCC2)CC1 22.5%, CCc1ccc(-n2c(=O)c3ccccc3n(CC(=O)NCCc3ccc(OC)c(OC)c3)c2=O)cc1 7.07%, Cc1ccc2oc(C(=O)Nc3ccc(S(=O)(=O)N4CCCC(C)C4)cc3)cc(=O)c2c1 (stereo not given) -0.364%, O=C(O)c1ccccc1C(=O)Nc1ccc(-c2ccccc2)cc1 9.52%, COc1ccc(OC)c(NC(=O)CCCc2nnc3n(C(C)C)c(=O)c4sccc4n23)c1 -2.92%, CCn1cc2nc(SCc3cccc(C(F)(F)F)c3)n(Cc3ccc(Cl)cc3)c(=O)c2n1 -13.9%, CCOc1ccc(NC(=O)CC2C(=O)N(c3ccccc3)C(=O)N2CCc2cccs2)cc1 (stereo not given) 3.46%, CCN(CC)C(=O)c1sc2c(c1C)c(=O)n(-c1ccccc1)c(=O)n2Cc1c(C)cc(C)cc1C 0.329%, Cc1ccccc1NC(=O)c1c(NC(=O)c2ccccc2)sc2c1CCC2 -4.78%, Cc1ccc2cc3cc(C(=O)N4CCN(c5ccc(Cl)cc5)CC4)oc3nc2c1 4.87%, CCN(CC)C(=O)c1ccc2c(c1)N(Cc1c(F)cccc1Cl)C(=O)c1ccccc1S2 7.07%, CC(C)C(NS(=O)(=O)c1ccc2c(c1)oc(=O)n2C)C(=O)N1CCN(c2cccc(Cl)c2)CC1 (stereo not given) 1.25%, O=C(CSc1nc(=O)[nH]c2c1CCCC2)Nc1ccc(Cl)c(Cl)c1 4.71%, COc1ccc(N2CC(NC(=O)c3cccs3)CC2=O)cc1 (stereo not given) -2.01%, COC(=O)Cn1c(=NC(=O)c2ccc3c(c2)OCCO3)sc2ccccc21 -2.19%, Cc1ccn2c(Nc3c(C)cccc3C)c(-c3ccsc3)nc2c1 -11.8%, COc1ccc(NC(=O)C(Cc2c[nH]c3ccccc23)NC(=O)OC(C)(C)C)cc1 (stereo not given) 3.29%, Cc1ccc(C(=O)n2nc(C)c(S(=O)(=O)N3CCCCCC3)c2C)cc1C 34.2%, C=CC(=O)N1CCC[C@@H](n2nc(-c3ccc(Oc4ccccc4)cc3)c3c(N)ncnc32)C1 -0.0988%, Cc1ccc(-n2nc(C(=O)Nc3ccc(F)cc3Cl)c(=O)n(C)c2=O)cc1 -1.87%, CCOc1cccc2sc(N3CCN(C(=O)c4ccc5c(c4)CCCC5)CC3)nc12 -6.21%

outcome, inactive:
CCOc1ccccc1CNC(=O)CCc1c(C)nn(-c2ccc(N3CCOCC3)nn2)c1C, Cc1ccccc1C(=O)NCCc1csc(-c2ccc(C(F)(F)F)cc2)n1, Cc1cn2c(=O)cc(COC(=O)c3cccc(NC(=O)COc4ccccc4C)c3)nc2s1, Cc1cc(F)ccc1NC1(c2ccccc2)C(=O)c2ccccc2C1=O, CCOc1ccc(N(CC(=O)Nc2ccccc2CC)S(=O)(=O)c2c(C)[nH]c(=O)[nH]c2=O)cc1, CCOc1ccc(-n2c(SCC(=O)N3CCCCCC3)nc3c([nH]c4ccccc43)c2=O)cc1, CCn1cc(C(=O)NCCc2ccc(OC)c(OC)c2)c(=O)c2cc(S(=O)(=O)N3CCC(C)CC3)ccc21, Cc1ccc(OC(=O)CSc2nnc(-c3cccs3)o2)cc1C, COc1ccc(CNC(=O)c2ccc3nc(CCc4ccccc4)oc3c2)c(OC)c1, O=C(CCNS(=O)(=O)c1cccc2nsnc12)NCc1ccccc1, COc1cc(NC(=O)N2CCC3(CC2)Nc2cc(F)ccc2-n2cccc23)cc(OC)c1OC, COc1ccc(OC)c(C2C(C(=O)N3CCCCC3)=C(C)Nc3nc4ccccc4n32)c1 (stereo not given), CCOC(=O)N1CCc2c(sc3c2c(=O)n(CCc2ccccc2)c(=O)n3CC(=O)Nc2cccc(C)c2)C1, COc1ccc(-c2nc(CS(=O)CC(=O)NCCc3ccccc3)c(C)o2)cc1OC (stereo not given), Cc1cc(C)cc(-n2ccnc(NCCc3ccccc3)c2=O)c1, COc1ccc(Cl)cc1NC(=O)NCCn1c(=O)oc2ccc(C)cc21, Cc1ccc(C)c(N2CCN(C(=O)c3cnn(C(C)(C)C)c3C3CCN(C(=O)OC(C)(C)C)CC3)CC2)c1, Cc1ccc(Cl)cc1-n1nnc(-c2nsc(NC(=O)c3ccccc3Cl)n2)c1C, COc1ccc(-c2cn3nc(N4CCC(C(=O)Nc5ccccc5OC)CC4)sc3n2)cc1, CCN(CC)S(=O)(=O)c1ccc(NC(=O)c2cc3ccc4cccnc4c3[nH]2)cc1
